From the supplement of paper PMC11417369
± gives the standard deviation of the averaged measurements. Some of the results follow.

tested on: PfAP2-EXP AP2 domain (GST-tagged); assay: gcPBM binding intensity (ln(normalized median fluorescence intensity)); higher = stronger DNA binding
Method in brief: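 Plasmodium falciparum DNA-binding domains carrying a GST tag were expressed in E. coli and applied for 1 h, at about 25 μg on average, to an Agilent 4 × 180k array. The array held primer-extended double-stranded 36-bp intergenic genomic probes together with negative controls, and binding took place in 1× PBS with 1% milk, 0.2 mg/ml BSA, 0.5% salmon testes DNA and 0.03% Triton X-100. An Alexa488 anti-GST antibody detected bound protein, and the array was scanned at 488 nm. Binding intensity is taken as the highest Masliner-normalised natural-log median intensity across replicate spots of either probe orientation.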

Sequence | gcPBM binding intensity (ln)
TACATCTGTAATGTGTGTACATATATGTATATATTT [XGTACX_site1805] | 8.48 ± 0.44
CTAAATAAAGTTAACACACACATAATATATATATGT [CACACA_site486] | 8.54 ± 0.43
TAATTTTTATGAAGAAGTACAAAATCTACTATCATA [XGTACX_site4985] | 7.99 ± 0.38
AAAAATTCTTTTTCATCTATATGCAGAAAGAAAAAG [CACACA_negctrl_site1201] | 8.35 ± 0.45
CATAAACTTTTTAACACACACTTATATATATATATA [CACACA_site4747] | 10.3 ± 0.23
TATATGAAGCTATAGACACACATATAAAAATATAAT [CACACA_site4850] | 8.64 ± 0.47
TATAATAATATATATTGTACACACAAAATGGGAAAA [XGTACX_site3911] | 8.94 ± 0.35
GAATTTATGAACTGTGCATGTAAAAAAAACAACAAA [TGCATGCA_site449] | 9.13 ± 0.3
ATATAAAAAAAAGATGAAAAAAAAAATGAAAGAAAG [CACACA_negctrl_site1266] | 8.91 ± 0.55
TTTTTTTTTTTTTACACACACAAAATATTATCTGTA [CACACA_site5378] | 8.54 ± 0.47
ATATATATAATATGATGTACATATTTATTTATATAT [XGTACX_site7333] | 8.53 ± 0.042
AATGAAATAAAATAAAGTACATATATGTAAAAGTAG [XGTACX_site5650] | 9.3 ± 0.42
AATTGAAAAGAATGAAGTACACATTTGATGATACAT [XGTACX_site5182] | 8.62 ± 0.33
TAAATAAATTTATACACACACACACCGATATATATA [CACACA_site4622] | 8.82 ± 0.56
AATAAAAGATCATTTATTCTTTTTTTTCTTTTTAAA [CACACA_negctrl_site1256] | 8.03 ± 0.61
GAATGCCTTGAAAATAGTACAATTAAGAAAAAATAC [XGTACX_site8002] | 8.81 ± 0.27
AAAATACATAAACGTTCACACATTTAAGATAACGAG [CACACA_site5345] | 8.61 ± 0.33
GAGTTTACACTCCCTTGTACATATTCATTTTTATTC [XGTACX_site5208] | 9.06 ± 0.4
TATATATATAATATATGTACATATTAATTATGTATA [XGTACX_site5366] | 8.79 ± 0.13
TGAATAAATATATATACACACATATATGTATATATT [CACACA_site1642] | 8.05 ± 0.42
AATTAAATAAATGTATGTACATAATAAATATGTATT [XGTACX_site4379] | 8.34 ± 0.27
TGAAAATAGTTAATTTGTACACAAAAATTAAGAAAA [XGTACX_site5794] | 8.54 ± 0.35
TTTTATTTTATAAAAATAAAAAAAAAATTATTACAA [TGCATGCA_negctrl_site508] | 8.09 ± 0.4
TATGAAAATATATATTGTACAGAATCTATAAAAAAT [XGTACX_site8030] | 8.6 ± 0.35
